# According to the supplement of paper PMC8728848:
# This is one part of the list.
# How the values were obtained:
# Assay in all cases: glycan array binding signal (z-score within array); higher = stronger binding
# Settings in all cases: glycan notation: IUPAC condensed, linker removed
# [1] = biological target: GlcNAc(b1-3)Gal(b1-4)GlcNAc(b1-3)Gal(b1-4)GlcNAc(b1-3)GalNAc
# Summary of the method: (§1)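 Arrays were curated from the Consortium for Functional Glycomics database, 3228 in total, and kept only where the protein sequence was available. Binding is expressed as a within-array Z-score. This score was averaged across arrays of the same protein sequence at different concentrations or buffers and across linkers, and negative values can be read as non-binding.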
# [2] = biological target: GlcNAc(b1-3)Gal(b1-4)GlcNAc(b1-3)GalNAc
# Summary of the method: as §1
# [3] = biological target: GlcNAc(b1-3)Gal(b1-4)GlcNAc(b1-3)[GlcNAc(b1-3)Gal(b1-4)GlcNAc(b1-3)]GalNAc
# Summary of the method: as §1
# [4] = biological target: GlcNAc(b1-3)Gal(b1-4)GlcNAc(b1-6)[Gal(b1-3)]GalNAc
# Summary of the method: as §1
# [5] = biological target: GlcNAc(b1-3)Gal(b1-4)GlcNAc(b1-6)[GlcNAc(b1-3)Gal(b1-3)]GalNAc
# Summary of the method: as §1
# [6] = biological target: GlcNAc(b1-3)Gal(b1-4)GlcNAc(b1-6)[GlcNAc(b1-3)]Gal(b1-4)GlcNAc
# Summary of the method: as §1
# GlcNAc(b1-3)GalNAc = biological target: GlcNAc(b1-3)GalNAc
# Summary of the method: as §1
# GlcNAc(b1-3)Man = biological target: GlcNAc(b1-3)Man
# Summary of the method: as §1
# [7] = biological target: GlcNAc(b1-3)[GlcNAc(b1-4)][GlcNAc(b1-6)]GlcNAc
# Summary of the method: as §1
# [8] = biological target: GlcNAc(b1-3)[GlcNAc(b1-6)]Gal(b1-4)GlcNAc
# Summary of the method: as §1
# [9] = biological target: GlcNAc(b1-3)[GlcNAc(b1-6)]GalNAc
# Summary of the method: as §1
# [10] = biological target: GlcNAc(b1-4)Gal(b1-4)GlcNAc
# Summary of the method: as §1
# GlcNAc(b1-4)GlcNAc = biological target: GlcNAc(b1-4)GlcNAc
# Summary of the method: as §1
# [11] = biological target: GlcNAc(b1-4)GlcNAc(b1-4)GlcNAc
# Summary of the method: as §1
# [12] = biological target: GlcNAc(b1-4)GlcNAc(b1-4)GlcNAc(b1-4)GlcNAc(b1-4)GlcNAc
# Summary of the method: as §1
# [13] = biological target: GlcNAc(b1-4)GlcNAc(b1-4)GlcNAc(b1-4)GlcNAc(b1-4)GlcNAc(b1-4)GlcNAc
# Summary of the method: as §1
# [14] = biological target: GlcNAc(b1-4)[GlcNAc(b1-6)]GalNAc
# Summary of the method: as §1
# [15] = biological target: GlcNAc(b1-6)Gal(b1-4)GlcNAc
# Summary of the method: as §1
# GlcNAc(b1-6)GalNAc = biological target: GlcNAc(b1-6)GalNAc
# Summary of the method: as §1
# [16] = biological target: GlcNAc6S(b1-3)Gal(b1-4)GlcNAc
# Summary of the method: as §1
# Kdn(a2-3)Gal(b1-3)GalNAc = biological target: Kdn(a2-3)Gal(b1-3)GalNAc
# Summary of the method: as §1
# Kdn(a2-3)Gal(b1-3)GlcNAc = biological target: Kdn(a2-3)Gal(b1-3)GlcNAc
# Summary of the method: as §1
# Kdn(a2-3)Gal(b1-4)Glc = biological target: Kdn(a2-3)Gal(b1-4)Glc
# Summary of the method: as §1
# Kdn(a2-3)Gal(b1-4)GlcNAc = biological target: Kdn(a2-3)Gal(b1-4)GlcNAc
# Summary of the method: as §1
# [17] = biological target: Kdn(a2-3)Gal(b1-4)[Fuc(a1-3)]GlcNAc
# Summary of the method: as §1
# Kdn(a2-6)Gal(b1-4)GlcNAc = biological target: Kdn(a2-6)Gal(b1-4)GlcNAc
# Summary of the method: as §1
# [18] = biological target: Man(a1-2)Man(a1-2)Man(a1-3)Man
# Summary of the method: as §1
# [19] = biological target: Man(a1-2)Man(a1-2)Man(a1-6)[Man(a1-3)]Man
# Summary of the method: as §1
# Man(a1-2)Man(a1-3)Man = biological target: Man(a1-2)Man(a1-3)Man
# Summary of the method: as §1
# [20] = biological target: Man(a1-2)Man(a1-3)[Man(a1-2)Man(a1-6)]Man
# Summary of the method: as §1
# [21] = biological target: Man(a1-2)Man(a1-3)[Man(a1-2)Man(a1-6)]Man(a1-6)[Man(a1-2)Man(a1-2)Man(a1-3)]Man
# Summary of the method: as §1
# [22] = biological target: Man(a1-2)Man(a1-3)[Man(a1-2)Man(a1-6)]Man(a1-6)[Man(a1-2)Man(a1-2)Man(a1-3)]Man(b1-4)GlcNAc(b1-4)GlcNAc
# Summary of the method: as §1
# [23] = biological target: Man(a1-2)Man(a1-3)[Man(a1-6)]Man(a1-6)[Man(a1-2)Man(a1-3)]Man(b1-4)GlcNAc(b1-4)GlcNAc
# Summary of the method: as §1
# [24] = biological target: Man(a1-2)Man(a1-6)[Man(a1-3)]Man(a1-6)[Man(a1-2)Man(a1-2)Man(a1-3)]Man
# Summary of the method: as §1
# [25] = biological target: Man(a1-2)Man(a1-6)[Man(a1-3)]Man(a1-6)[Man(a1-2)Man(a1-2)Man(a1-3)]Man(b1-4)GlcNAc(b1-4)GlcNAc
# Summary of the method: as §1
# Man(a1-3)[Man(a1-6)]Man = biological target: Man(a1-3)[Man(a1-6)]Man
# Summary of the method: as §1
# [26] = biological target: Man(a1-3)[Man(a1-6)]Man(a1-6)[Man(a1-2)Man(a1-3)]Man(b1-4)GlcNAc(b1-4)GlcNAc
# Summary of the method: as §1
# [27] = biological target: Man(a1-3)[Man(a1-6)]Man(a1-6)[Man(a1-3)]Man
# Summary of the method: as §1
# [28] = biological target: Man(a1-3)[Man(a1-6)]Man(a1-6)[Man(a1-3)]Man(b1-4)GlcNAc(b1-4)GlcNAc
# Summary of the method: as §1
# [29] = biological target: Man(a1-3)[Man(a1-6)]Man(b1-4)GlcNAc(b1-4)GlcNAc
# Summary of the method: as §1
# [30] = biological target: Man(a1-3)[Man(a1-6)]Man(b1-4)GlcNAc(b1-4)[Fuc(a1-6)]GlcNAc
# Summary of the method: as §1
# Man(a1-6)Man = biological target: Man(a1-6)Man
# Summary of the method: as §1
# Man(b1-4)GlcNAc = biological target: Man(b1-4)GlcNAc
# Summary of the method: as §1
# MurNAc(b1-4)GlcNAc = biological target: MurNAc(b1-4)GlcNAc
# Summary of the method: as §1
# Neu5Ac(a2-3)Gal = biological target: Neu5Ac(a2-3)Gal
# Summary of the method: as §1
binder,measurement,setting,value
HPL (Tachypleus tridentatus) (protein) MEDDCTCVTDRSLEGKLMKHPSTPAVYQILDGCRRLVPNPPTYNNIYKNWECIQSNILEKLLCKCDSLSNGAELIKGSGDTVYLLSNGVKRPIADPETFNGFCFDWNKIKTYSDIVINSLSTGPIIIIKHHHHHH,glycan array binding signal (z-score),[1],-0.251
same,glycan array binding signal (z-score),[2],-0.253
same,glycan array binding signal (z-score),[3],-0.153
same,glycan array binding signal (z-score),[4],-0.176
same,glycan array binding signal (z-score),[5],-0.089
same,glycan array binding signal (z-score),[6],-0.339
same,glycan array binding signal (z-score),GlcNAc(b1-3)GalNAc,-0.228
same,glycan array binding signal (z-score),GlcNAc(b1-3)Man,0.24
same,glycan array binding signal (z-score),[7],-0.296
same,glycan array binding signal (z-score),[8],-0.288
same,glycan array binding signal (z-score),[9],-0.304
same,glycan array binding signal (z-score),[10],-0.298
same,glycan array binding signal (z-score),GlcNAc(b1-4)GlcNAc,-0.144
same,glycan array binding signal (z-score),[11],-0.174
same,glycan array binding signal (z-score),[12],0.534
same,glycan array binding signal (z-score),[13],-0.084
same,glycan array binding signal (z-score),[14],-0.382
same,glycan array binding signal (z-score),[15],-0.224
same,glycan array binding signal (z-score),GlcNAc(b1-6)GalNAc,-0.188
same,glycan array binding signal (z-score),[16],-0.343
same,glycan array binding signal (z-score),Kdn(a2-3)Gal(b1-3)GalNAc,0.271
same,glycan array binding signal (z-score),Kdn(a2-3)Gal(b1-3)GlcNAc,-0.274
same,glycan array binding signal (z-score),Kdn(a2-3)Gal(b1-4)Glc,1
same,glycan array binding signal (z-score),Kdn(a2-3)Gal(b1-4)GlcNAc,-0.185
same,glycan array binding signal (z-score),[17],0.123
same,glycan array binding signal (z-score),Kdn(a2-6)Gal(b1-4)GlcNAc,-0.279
same,glycan array binding signal (z-score),[18],-0.291
same,glycan array binding signal (z-score),[19],-0.201
same,glycan array binding signal (z-score),Man(a1-2)Man(a1-3)Man,-0.385
same,glycan array binding signal (z-score),[20],-0.302
same,glycan array binding signal (z-score),[21],-0.288
same,glycan array binding signal (z-score),[22],1.31
same,glycan array binding signal (z-score),[23],0.005
same,glycan array binding signal (z-score),[24],-0.192
same,glycan array binding signal (z-score),[25],-0.205
same,glycan array binding signal (z-score),Man(a1-3)[Man(a1-6)]Man,-0.108
same,glycan array binding signal (z-score),[26],0.122
same,glycan array binding signal (z-score),[27],1.26
same,glycan array binding signal (z-score),[28],0.127
same,glycan array binding signal (z-score),[29],-0.093
same,glycan array binding signal (z-score),[30],-0.201
same,glycan array binding signal (z-score),Man(a1-6)Man,0.269
same,glycan array binding signal (z-score),Man(b1-4)GlcNAc,0.643
same,glycan array binding signal (z-score),MurNAc(b1-4)GlcNAc,-0.265
same,glycan array binding signal (z-score),Neu5Ac(a2-3)Gal,-0.227
